The whole screen tested about 46,000 compounds, of which about 60 (0.1%) were called active. Another 3% or so got no clear call; they are omitted. Calls come from the whole dose curve; as a rule, active = well fitted inhibition curve with a large enough effect; inconclusive = small, poorly fitted or top-dose-only effect; inactive = no such curve, though single readings can be large or run the other way. The list shows a part of the results.
Assay: Primary qHTS assay for Inhibitors of ovarian cancer metastasis using an organotypic tumor microenvironment (TME) model.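 For activity change, negative = inhibition: plate controls were DMSO wells for no effect and tomatine positive control wells for full effect.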 Note: nearly all actives have a fitted effect of over 65% in size.
Conditions: SKOV3ip1-GFP adhesion/invasion on 3D omental model, fluorescence; series mostly up to 45.8 µM; activity change, negative = inhibition: at the top concentration
Procedure, shortened: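 Adhesion/invasion was scored as fixed GFP-labeled SKOV3ip1 cell counts (488/509 nm), normalized to DMSO and tomatine controls. Cancer cells in serum-free medium, with four compound doses (0.36-46 umol/L), sat 2 hr at RT then 16 hr at 37 C on a 48 hr fibroblast/mesothelial/ECM culture.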

Compound | activity change, negative = inhibition | outcome
CCOc1ccc(N2C(=O)N(Cc3ccc(C)cc3C)c3ccccc3S2(=O)=O)cc1 | inactive: -6.87% | –
COc1ccccc1N1CCN(CC(O)COc2cc(C)cc(C)c2)CC1 (stereo unspecified) | inactive: -2.39% | –
Cc1ccc(-c2cc(C(=O)NCCc3ccccc3)c3c(-c4ccc(C)cc4)[nH]nc3n2)cc1 | inactive: -15% | –
CCn1cc(C(=O)N2CCN(c3cc(C)ccc3C)CC2)c(=O)c2cc(S(=O)(=O)N(C)C3CCCCC3)ccc21 | inactive: 19.4% | –
Cc1cccc(Nc2c3c(nc4nncn24)CCC3)c1 | inactive: -4.41% | –
COc1ccc(-c2ccc3c(N)c(C(=O)Nc4cc(F)ccc4C)sc3n2)cc1 | inactive: 3.16% | –
O=c1c2ccccc2n(Cc2cccc(F)c2)c(=O)n1Cc1ccccc1Cl | inactive: -8.71% | –
NC(=O)[C@@H](CCC(F)(F)F)N(Cc1ccc(-c2ncon2)cc1F)S(=O)(=O)c1ccc(Cl)cc1 | inactive: -16.6% | –
COc1cccc(CNC(=O)CCCN2C(=O)CSc3c2c(C)nn3-c2ccccc2)c1 | – | inactive
Cc1cccc(NS(=O)(=O)c2ccc3c(c2)CCN3C(=O)CCC(=O)O)c1C | inactive: 3.45% | –
CCN(c1ccccc1)S(=O)(=O)c1ccc(NC(=O)c2cc(=O)c3cc(C)c(C)cc3o2)cc1 | inactive: -0.587% | –
Cc1ccc(NC(=O)CSc2nc3c([nH]c4ccccc43)c(=O)n2-c2ccccc2)c(C)c1 | inactive: -7.53% | –
CCCCN1CCc2nc(N3CCN(c4ncccn4)CC3)ncc2C1 | inactive: -0.0034% | –
COc1ccccc1N1CCN(C(=O)Cn2c(=O)nc(-c3ccccc3)c3cc(Cl)ccc32)CC1 | – | inactive
Cc1nc2c(-c3ccc(F)cc3)c(C)nn2c(C)c1CCC(=O)NCc1ccc(Cl)cc1 | – | inactive
CCOc1ccc(NC(=O)c2ccc(-c3ccccc3)s2)cc1 | inactive: -0.471% | –
CCOc1ccc(C(=O)Nc2ccc3nc(SCc4ccccc4)sc3c2)cc1 | inactive: 9.68% | –
COc1ccc(S(=O)(=O)Nc2cc3c(cc2NCc2ccccc2)n(C)c(=O)n3C)cc1OC | inactive: -5.05% | –
COc1cccc(-n2cc(C(=O)NCc3cccc(Cl)c3)c3ccccc3c2=O)c1 | inactive: 6.05% | –
CCOC(=O)Cn1c(=O)n(C2CCCCC2)c2nc(-c3ccc(Cl)cc3)nc(C(N)=O)c21 | – | inactive
Cc1cc(-c2nc3ncccc3o2)ccc1NC(=O)c1ccc(Br)cc1 | inactive: -23.1% | –
Cc1cc(C)c(NC(=O)c2cc3c(=O)n4ccccc4nc3n2C)c(C)c1 | inactive: 9.44% | –
Cc1ccc2c(=O)cc(CSc3nnc(-c4ccccc4)n3C)[nH]c2c1C | inactive: 10.1% | –
CC(C)c1ccc(S(=O)(=O)Nc2ccc3oc4c(c3c2)C(=O)CC(C)(C)C4)cc1 | inactive: 7.71% | –

Compound | activity change, negative = inhibition | outcome
COc1ccc(OCC(=O)NCC(c2ccc(Cl)cc2)N2CCCCC2)cc1 (stereo unspecified) | inactive: 1.63% | –
COc1ccc(NC(=O)c2c(-c3ccccc3)c(-c3ccccc3)nn(C)c2=O)c(OC)c1 | – | inactive
CC(=O)N1c2ccccc2C(=O)C1N1CCN(c2ccccc2)CC1 (stereo unspecified) | inactive: -8.59% | –
CSc1ccc(CNC(=O)c2ccccc2NC(=O)c2nsc3ccccc23)cc1 | inactive: 2.48% | –
CC(=O)Nc1ccc(S(=O)(=O)N2CCC(Oc3ccc(-n4cnnn4)cc3)CC2)cc1 | inactive: -3.89% | –
COc1cc(OC)cc(-n2nnc(-c3nc(-c4ccccc4Cl)no3)c2N)c1 | inactive: -0.159% | –
CC(=O)N1CCc2c(sc3c2c(=O)n(-c2ccccc2C)c(=O)n3Cc2cccc(F)c2)C1 | inactive: 0.319% | –
CC1CCN(C(=O)c2cnn(-c3cccc(Cl)c3)c2C2CCN(C(=O)OC(C)(C)C)CC2)CC1 | inactive: 0.852% | –
COCCCNC(=O)c1sc2nc(C)c(C(=O)Nc3ccc(C)cc3C)c(-c3ccc(Cl)cc3)c2c1N | – | inactive
Cc1c(Cl)cccc1NC(=O)c1ccc(C(=O)Nc2cccc(Cl)c2C)cc1 | inactive: -1.67% | –
COC(=O)c1scc(-c2ccccc2)c1S(=O)(=O)Nc1cccc(C)c1C | inactive: -4.91% | –
CCCCOc1ccc(C(=O)N(Cc2ccc(C(C)C)cc2)C2CCS(=O)(=O)C2)cc1 (stereo unspecified) | inactive: -18.8% | –
O=C(c1ccccc1Cl)n1nc(-c2cccnc2)nc1NCc1ccc(F)cc1 | inactive: -1.88% | –
Cc1c(CNC(C)CCc2ccccc2)c(C(=O)O)c(C)n1Cc1ccc(F)cc1Cl (stereo unspecified) | inactive: -7.21% | –
O=C(Nc1ccccc1-c1nc2ccccc2s1)c1cc(Cl)cc(Cl)c1 | inactive: -8.38% | –
Cc1ccccc1Nc1c(-c2ccc(N3CCOCC3)cc2)nc2ncccn12 | inactive: -4.84% | –
CN1CC(=O)NC1=NC(=O)Nc1cccc(Cl)c1 | inactive: 1.79% | –
COc1ccc(CN2COc3ccc4c(oc(=O)c5ccccc54)c3C2)cc1OC | inactive: 4% | –
COc1ccc(C2=NN(CC(=O)NCCCN(C)c3ccccc3)C(=O)CC2)cc1 | – | inactive
COC(=O)c1cc2sc(C)cc2n1Cc1ccc(Br)cc1F | inactive: -7.76% | –
CCOC(=O)c1ccc(NC(=O)CCc2c(C)nc3nc[nH]n3c2=O)cc1 | – | inactive
Cc1cc(C)c(NC(=O)CCc2c(C)nc3c(c(C)nn3C(C)(C)C)c2C)c(C)c1 | inactive: -5.67% | –
COc1ccc(N2CCN(C3=NS(=O)(=O)C(c4cccc(Br)c4)=C3C)CC2)cc1 | inactive: -0.741% | –
CCOC(=O)c1cccc(NC(=O)C2CCN(S(=O)(=O)c3cn(C)cn3)CC2)c1 | inactive: -8.75% | –

Compound | activity change, negative = inhibition | outcome
Cc1ccc(C)c(NS(=O)(=O)c2cc3c(cc2Cl)NC(=O)CO3)c1 | inactive: -1.48% | –
CCOC(=O)c1ccc(NC(=O)CC2C(=O)N(c3ccc(F)cc3)C(=O)N2Cc2ccc3c(c2)OCO3)cc1 (stereo unspecified) | inactive: -7.84% | –
COc1ccc(NC(=O)c2nc3nc(C)cc(C(F)F)n3n2)c(C)c1 | – | inactive
COc1ccc(C=Cc2cc(OC)c(OC)c(OC)c2)cc1O | inactive: 27.1% | –
COc1ccc(C2CC(=O)Nc3c2c(=O)[nH]c2nc4ccccc4n32)cc1OC (stereo unspecified) | – | inactive
Cc1ccc2oc3c(c(=O)c2c1)C(c1ccc(F)cc1)N(c1nc(C)c(C)s1)C3=O (stereo unspecified) | – | inactive
COCCNC(=O)C(=O)NCC(c1cccnc1)N1CCN(c2ccccc2F)CC1 (stereo unspecified) | inactive: -3.1% | –
COc1ccccc1Nc1nc2ccc(Cl)cc2nc1-n1nc(C)cc1C | inactive: -3.73% | –
COc1cc2ccccc2cc1C(=O)Nc1ccc2oc(-c3cccc(Cl)c3Cl)nc2c1 | inactive: -2.43% | –
COCCCNc1ncnc2c1cnn2-c1ccc(F)cc1 | inactive: -9.33% | –
CCc1ccc(NC(=O)N2CC(C)Oc3ccc(C)cc32)cc1 (stereo unspecified) | inactive: -3.25% | –
Nc1nc(Nc2ccc(S(N)(=O)=O)cc2)nn1C(=O)c1c(F)cccc1F | inactive: 23.6% | –
CCc1ccc(S(=O)(=O)c2nnn3c2nc(N2CCCC2)c2sccc23)cc1 | inactive: -0.949% | –
COc1ccc(-n2cc(-c3ccccc3)nc2SCC(=O)Nc2ccccc2)cc1Cl | inactive: -1.01% | –
CCCn1c(NCc2ccccc2C)nc2ccccc21 | inactive: 0.338% | –
COc1ccc(-c2cc(C(F)(F)F)n3nc(C(=O)Nc4cccc(Cl)c4C)cc3n2)cc1 | inactive: 1.54% | –
CCOC(=O)c1ccc(NC(=O)Cn2cnc(S(=O)(=O)N3CCCC3)c2)cc1 | – | inactive
Cc1ccccc1C1C=C(c2ccc(Cl)cc2)Nc2nnnn21 (stereo unspecified) | inactive: 9.53% | –
COc1ccc(NC(=O)COCc2cc(-c3cccs3)on2)cc1 | inactive: -0.164% | –
Cc1nn(-c2ccc(N3CCCCC3)nn2)c(C)c1CCC(=O)NCc1ccccc1F | inactive: -13.3% | –
COc1cc(C2c3c(oc4ccccc4c3=O)C(=O)N2c2nnc(C(C)C)s2)cc(OC)c1OC (stereo unspecified) | inactive: 1.91% | –
CCOc1ccccc1CNC(=O)c1cc(-c2ccc(OC)cc2)nc2ccc(C(C)C)cc12 | inactive: -6.5% | –
O=C(c1ccc2c(c1)N(Cc1ccccc1)C(=O)c1ccccc1S2(=O)=O)N1CCN(c2ccccn2)CC1 | inactive: -1.42% | –
CCSc1ncc(Cl)c(C(=O)Nc2c(C(=O)Nc3ccc(Cl)cc3)oc3ccccc23)n1 | inactive: 6.98% | –

Compound | activity change, negative = inhibition | outcome
CCOc1ccc(OCC)c(NC(=O)CCc2c(C)nc3c(c2C)c(=O)n(C)c(=O)n3C)c1 | inactive: -3.82% | –
COC(=O)c1ccccc1NC(=O)Cn1c(=O)n(-c2ccc(Cl)cc2)c(=O)c2c(C)c(C)sc21 | inactive: -2.27% | –
Cc1ccc(Cn2ccn(Cc3ccccc3C)c(=O)c2=O)cc1 | inactive: 4.94% | –
COc1ccc(/C=C/c2noc(-c3ccccc3O)n2)cc1OC | – | inactive
CCOC(=O)c1cccc(NS(=O)(=O)c2cn(C)c(C)n2)c1 | inactive: -3.94% | –
Cc1ccc(CN2CCN(CC(=O)NCc3ccccc3Cl)C2=O)cc1 | inactive: -13.8% | –
COc1cc(NS(=O)(=O)c2ccc3c(c2)CCCN3C(C)=O)cc(OC)c1OC | inactive: -7.84% | –
Cc1cc(C)cc(-n2nnc(-c3nc(-c4ccccc4F)no3)c2C)c1 | inactive: 9.09% | –
Cc1cc(C)n(-c2nc3ccccc3nc2Nc2cc(C(=O)O)ccc2C)n1 | inactive: -3.43% | –
COc1ccc(C(=O)N2CCc3cc(OC)c(OC)cc3C2COc2ccc3c(C)cc(=O)oc3c2)c(OC)c1 (stereo unspecified) | inactive: 1.19% | –
COc1ccc(NC(=O)c2sc3nc(C)c(C(=O)Nc4ccc(Cl)cc4)c(-c4ccc(Br)cc4)c3c2N)cc1 | inactive: -6.92% | –
O=C(Nc1ccc(F)c(Cl)c1)c1cc(S(=O)(=O)N2CCCc3ccccc32)ccc1F | – | inactive
Cc1c(Cl)cccc1NC(=O)CCn1nc(C)c2c(C)n(-c3ccccc3)nc2c1=O | inactive: 2.23% | –
CCOc1ccccc1NC(=O)CN1C(=O)C2(SCC(=O)N2c2cccc(F)c2)c2ccccc21 (stereo unspecified) | – | inactive
COc1ccc(S(=O)(=O)N(CC(=O)NCc2ccc(C)cc2)c2ccc(Cl)cc2)cc1 | – | inactive
Cc1ccc(NC(=O)C(=O)NCC(c2cccnc2)N2CCc3ccccc32)cc1Cl (stereo unspecified) | – | inactive
Cc1c(Cl)cccc1NC(=O)CSc1ncccc1C(=O)Oc1ccccc1Cl | – | inactive
CCOC(=O)c1ccc(NC(=O)c2ccc3c(c2)NC(=O)c2ccccc2S3)cc1 | inactive: -2.75% | –
COC(=O)C(CCSC)NC(=O)c1c(C)oc2ncn(CC(C)C)c(=O)c12 (stereo unspecified) | inactive: 10.4% | –
Cc1ccc(NC(=O)C(=O)NCC(c2cccnc2)N2CCN(C)CC2)cc1F (stereo unspecified) | inactive: 19.5% | –
COc1cc2ccccc2cc1C(=O)Nc1ccc(Cl)c(-c2nc3ccccc3o2)c1 | inactive: -42.7% | –
Cc1ccc(N2C(=O)c3[nH]nc(-c4ccc(Cl)cc4)c3C2c2ccc(F)cc2)cc1 (stereo unspecified) | inactive: -21.9% | –
CCOCCSc1c(C)cnc2c1c(=O)n(C)c(=O)n2C | – | inactive
COc1cccc(C(=O)Nc2ccc(-c3cn4cccnc4n3)cc2)c1OC | – | inactive

Reference: PubChem BioAssay AID1963576 (National Center for Advancing Translational Sciences (NCATS), 2024)
